Screen size: about 44,000 compounds; about 340 (0.77%) were called active. About 5% were inconclusive and are not listed. The call rests on the fitted dose curve; in most records, active means well fitted inhibition curve with a large enough effect; inconclusive means small, poorly fitted or top-dose-only effect; inactive means flat fitted curve, though single readings scatter. The list shows a part of the results.
assay: Acumen qHTS Assay for Inhibitors of the mTORC1 Signaling Pathway in MEF (Tsc2-/-, p53-/-) Cells: Sytravon; details: phospho-rpS6 immunofluorescence/PI, 24 h; series mostly up to 38.3 µM; activity change, negative = inhibition: at the top concentration;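 further: plate controls were DMSO for no effect and rapamycin for full effect; nearly all actives have a fitted effect of over 50% in size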
Procedure, shortened: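 Readout is phospho-S6 Alexa 488 signal normalized to PI per well, reported as % active cells with thresholds set from rapamycin (7.5 nM) and DMSO controls. Cells: Tsc2-/-, p53-/- MEFs, 24 hrs compound at 37 C; PI cell number serves as viability.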

Activity change, negative = inhibition, inactive:
CCc1ccccc1Nc1nn2c(=O)c3ccc(C(=O)Nc4cc(C)cc(C)c4)cc3nc2s1 -9.91%
Cc1cc(N2CCC(C)CC2)nc2ccc(NC(=O)CCC(=O)N3CCN(c4cccc(C(F)(F)F)c4)CC3)cc12 -6.23%
COc1cc(Cl)c(C)cc1NC(=O)CN1c2ccccc2S(=O)(=O)c2ccccc21 -0.321%
Cc1nn(C)c2c1c(C(F)(F)F)cc(=O)n2CC(=O)NCc1ccccc1Cl 0.31%
Cc1cc(F)ccc1NC(=O)c1sc2nc(-c3cccs3)ccc2c1N -2.22%
Cc1ccc(CC(=O)Nc2c(C(=O)N3CCN(c4ccccc4F)CC3)oc3ccccc23)cc1 0.896%
CCc1cccc(CC)c1NC1=NS(=O)(=O)c2ccccc21 -0.827%
CCOc1ccccc1NC(=O)C(C)Sc1nc2c(c(=O)[nH]1)CCCC2 (stereo unspecified) 0.531%
Cc1ccc(NS(=O)(=O)c2ccc3c(c2)NC(=O)CCS3)c(Br)c1 -15.3%
Cc1ccc(NCc2nnc3n2CCCCC3)cc1Cl 0%
CCOCCCNC(=O)CCc1nnc2ccc(N3CCN(c4cccc(OC)c4)CC3)nn12 0.737%
CCOC(=O)c1ccccc1NC(=O)CCc1c(C)nc2ncnn2c1C -5.55%
COc1ccc(-c2cc(C(=O)Nc3c(C)nn(Cc4ccc(F)cc4)c3C)no2)cc1OC 8.3%
Cc1ccc2c(=O)cc(C(=O)Nc3nnc(C)s3)oc2c1 5.29%
CN1C(C(=O)Nc2ccc(F)cc2F)=CC(c2cccs2)=NS1(=O)=O 0%
CCn1nc(-c2ccccc2)c(-c2ccccc2)c(C(=O)OCCOC)c1=O 5.56%
Cc1oc(-c2ccccc2)nc1CNC(=O)Nc1ccccc1 4.12%
CCOC(=O)C1=C(CN2CCC(C(=O)OCC)CC2)NC(=O)NC1c1ccc(Cl)cc1 (stereo unspecified) 1.09%
CCOc1ccc(S(=O)(=O)N2CCN(c3ccccc3)CC2)cc1C(N)=O -0.597%
Cc1ccc(Nc2c(-c3ccccc3O)nc3ccc(Br)cn23)cc1 -14.9%
CC(C)N(C(=O)Cn1cc(S(=O)(=O)Cc2ccc(C(F)(F)F)cc2)c2ccccc21)C(C)C -14.6%
Cc1cccc(NC(=O)CSc2nc3c([nH]c4ccccc43)c(=O)n2C)c1 -0.662%
COc1ccc2c(Sc3ccc(Cl)cc3)c(C(=O)NCCCN3CCCCC3)[nH]c2c1 -0.321%
CCOc1ccc(-n2c(=O)c3c(C)c(C(=O)N(C)C)sc3n(CC(=O)Nc3c(C)cc(C)cc3C)c2=O)cc1 -4.61%
Cc1ccc(CN(C(=O)COc2ccc(C)c(C)c2)C2CCS(=O)(=O)C2)o1 (stereo unspecified) 5.52%
COc1ccc(S(=O)(=O)Nc2cc(-c3cn4ccccc4n3)ccc2C)cc1 -12.3%
COc1ccc(OCc2nnc(-c3ccccc3)o2)cc1 0%
Cc1cc2ccccc2n1CCNC(=O)c1cc(C(F)(F)F)cc(C(F)(F)F)c1 -18%
Cn1nnc2c(N3CCN(c4ccccc4)CC3)ncnc21 0.358%
COCCn1c(SCC(=O)c2ccc(C)cc2C)nc2cc(C(=O)NC3CCCC3)ccc2c1=O 2.02%
CCOc1ccc(N(CC)S(=O)(=O)N2CCCC(C(=O)Nc3cc(Cl)ccc3C)C2)cc1 (stereo unspecified) -15.5%
CC(C)COc1ccc(C2=NC(c3ccncc3)=Nc3ccc(F)cc3N2)cc1 -1.52%
CC(=O)c1c(C)oc2c(Br)cc(NS(=O)(=O)c3ccc(Br)cc3)cc12 -17.8%
O=C(c1noc2c1CCCCC2)N1CCN(c2cccc(C(F)(F)F)c2)CC1 -4.33%
COc1ccccc1CNc1nc2ccc(Cl)cc2n2cnnc12 -5.5%
CC(C)c1ccc(NC(=O)c2cc(S(=O)(=O)N3CCCCC3)cn2C)cc1 -2.63%
COC(=O)c1cc(NC(=O)c2nn(C)c3c2CSc2ccccc2-3)cc(C(=O)OC)c1 0.573%
CN1CCN(C(=O)Cn2c(-c3cccs3)cc3cc(Cl)ccc32)CC1 -1.15%
Cc1ccc(Cl)cc1N1CCN(C(=O)C2CCN(S(=O)(=O)c3cccc4nonc34)CC2)CC1 -28.3%
Cc1ccccc1OC(=O)CSc1nnc(-c2ccc3c(c2)OCO3)o1 1.28%
CCN(CC)CCNC(=O)c1ccc(CSc2nc3ccncc3n2Cc2cccc(F)c2)cc1 4.64%
CC(C)(C)c1ccc(C(=O)N2CCC(c3nc(-c4ccc(S(=O)(=O)N5CCCC5)cc4)no3)CC2)cc1 5.52%
CCOc1ccc(-c2cc3c(=O)n(Cc4nc(-c5ccc(OC(C)C)cc5)oc4C)ccn3n2)cc1Cl 11.8%
Cc1ccc(-c2n[nH]c3c2C(c2cccc(O)c2)N(c2ccc(C(=O)O)cc2)C3=O)cc1 (stereo unspecified) -4.45%
O=C(Cn1nc(N2CCN(c3ccccc3)CC2)ccc1=O)Nc1ccc(F)cc1F -9.65%
COc1ccc(CNC(=O)C2CCCN(C(=O)N3CCOc4ccccc43)C2)cc1 (stereo unspecified) -5.7%
COc1cc(C2SC[C@H]3C(=O)N(c4ccccc4)C(=O)N23)cc(OC)c1OC (stereo partly specified) 2.27%
Cc1ccccc1-c1nc(CN2CCC(C(=O)NCCc3ccccc3)CC2)c(C)o1 1.14%
O=C(CCCn1c(=O)c2ccccc2n(CC(=O)Nc2cccc(C(F)(F)F)c2)c1=O)NCc1ccc2c(c1)OCO2 -1.11%
CCCN(CCC)S(=O)(=O)c1ccc2c(c1)N(CC(=O)NCc1ccc(F)cc1Cl)C(=O)CS2 -3.18%
O=C(NCc1cccn1Cc1ccccc1)Nc1ccc(Br)cc1F -2.2%
O=C(Nc1ccccc1C(=O)OCc1cc(=O)n2ccsc2n1)c1ccc(Cl)cc1 0%
O=C(COCc1cc(-c2ccc(F)cc2)on1)Nc1cccc(Cl)c1Cl 0.0836%
CCCc1cc(=O)[nH]c2nnc(SCC(=O)Nc3ccc(OC)cc3)n12 -9.08%
Cc1ccc(S(=O)(=O)c2nnn3c2nc(NC(C)c2ccccc2)c2sccc23)cc1 (stereo unspecified) -8.88%
CCOc1ccc(N2CC(NC(=O)c3ccc(S(=O)(=O)N4CCCC4)cc3)CC2=O)cc1 (stereo unspecified) 0.37%
Cc1ccc(Cl)cc1NC(=O)Nc1nnc(N2CCCC(C)C2)s1 (stereo unspecified) -3.17%
COc1ccccc1CNC(=O)CCNS(=O)(=O)c1ccc2c(c1)CCCC(=O)N2 2.92%
CCN(CC)S(=O)(=O)c1ccc2c(c1)nc(CN(C)C(=O)Nc1ccc(Cl)cc1)n2C 0%
CCOC(=O)c1c(C)[nH]c(C)c1S(=O)(=O)NCC(=O)NCc1ccc(C)cc1 0.613%
O=C(Cn1c(=O)n(Cc2ccc(Cl)cc2)c(=O)c2cccnc21)Nc1ccccc1C(F)(F)F -12.6%
CN(Cc1ccc(F)cc1)S(=O)(=O)c1nnc(NC(=O)c2ccccc2Br)s1 -9.64%
Cc1ccc(NC(=O)CNC(=O)Cn2c(C)cc3ccccc3c2=O)cc1F 7.41%
Cc1ccc(-n2nc3c(=O)n(CCCC(=O)NCc4ccccc4C)nc(C)c3c2C)cc1 2.41%
Cn1c(=O)oc2cc(S(=O)(=O)N3CCC(C(=O)NCc4ccccc4)CC3)ccc21 -1.62%
CCOC(=O)c1c(C)c(-c2ccccc2)n(CC(=O)NCc2cccc(OC)c2)c1C -11.6%
O=C(NCc1cccn1Cc1ccccc1)Nc1cccc(C(F)(F)F)c1 -3.11%
CCOc1ccccc1C(=O)Nc1ccc(S(=O)(=O)Nc2onc(C)c2C)cc1 3.1%
CC(=O)c1ccc(NC(=O)Cn2cnc3nc4c(cc3c2=O)CC(C)CC4)cc1 (stereo unspecified) -0.667%
CCOc1cccc(C2c3[nH]c4ccccc4c3CCN2C(=O)c2ccccc2F)c1 (stereo unspecified) 6.01%
Cc1ccc(F)cc1NC(=O)CCc1c(C)nn(-c2ccc(N3CCCC3)nn2)c1C -5.52%
Cc1cccc(-c2nc3scc(CCNS(=O)(=O)c4c(C)noc4C)n3n2)c1 0.477%
CCCCC(=O)Oc1ccc2oc(-c3ccc(OC)cc3)cc(=O)c2c1 -17.5%
CCOC(=O)c1c(SCC(=O)Nc2nc3ccccc3s2)nc(=O)[nH]c1C -1.99%
CCOC(=O)c1cnc2cc(C(F)(F)F)ccc2c1N1CCN(c2cccc(Cl)c2)CC1 -0.723%
CCOc1cc(CNC(=O)c2ccc(Cn3c(=O)c4cccn4c4cccnc43)cc2)ccc1OC 3.94%
CCN1CCN(Cc2nc3cc(NC(=O)c4cc(OC)c(OC)c(OC)c4)ccc3n2CC)CC1 0%
Cc1ccc(CNC(=O)N2CCC(CN3CCC(C)CC3)CC2)cc1 -4.78%
COc1ccc(S(=O)(=O)c2cn(CC(=O)Nc3cc(C)ccc3C)c3ccccc3c2=O)cc1 -5.48%
COc1ccc(S(=O)(=O)n2nc(-c3ccco3)nc2NCc2ccc(N(C)C)cc2)cc1 -6.46%
CCC1CN(C(=O)NCc2ccc(C)cc2)c2cc(Cl)ccc2O1 (stereo unspecified) -8.69%
COc1ccc(NC(=O)Cn2cnc3sc(C)c(S(=O)(=O)N4CCN(c5ccccc5OC)CC4)c3c2=O)cc1OC -0.289%
CCc1ccccc1NC(c1nnc(-c2cccc(F)c2)o1)c1ccc(F)cc1Cl (stereo unspecified) 1.71%
Cc1ccc2scc(N3CCc4ccccc4C3)c(=O)c2c1 0.949%
Cc1ccc(C)c(N2CCN(C(=O)Cn3ncc4c(=O)oc5ccccc5c43)CC2)c1 -5.82%
COc1cc(OC)cc(-c2nc3nc(C)c(CCC(=O)Nc4ccc(C)c(C)c4)c(C)n3n2)c1 1.1%
CCC(C(=O)NCc1ccco1)n1nc(C)c2c(C)n(-c3ccc(C)cc3)nc2c1=O (stereo unspecified) -4.08%
Cn1c(=O)c2c(-c3cccc(Br)c3)n(C(C)(C)CO)cc2n(C)c1=O -0.292%
COc1cccc(C(=O)N2CCN(CCc3ccncc3)CC2)c1 0.307%
CN(C)c1ccc(CNC(=O)c2cccc(NC(=O)N3CCSc4ncccc43)c2)cc1 -15%
Cc1cccc(C(=O)NCC(=O)OCc2cc(=O)n3nc(CC(C)C)sc3n2)c1 0.753%
Cc1cc2nc(-c3ccc(OCc4ccccc4Cl)cc3)cc(C(F)(F)F)n2n1 -0.931%
COc1ccccc1NC(=O)Cn1c(SCC(=O)N(C)c2ccccc2)nc2ccccc21 6.49%
Cc1ccc(NS(=O)(=O)c2ccc3c(c2)n(C)c(=O)n3C)cc1C 0.512%
O=C1N(Cc2ccccc2)c2ccc(Cl)cc2C1(O)c1c[nH]c2ccccc12 (stereo unspecified) -24.1%
COc1cccc2c1cc1c(=O)n(CC(=O)N3CCN(c4ccc(Cl)cc4)CC3)nc(C)n12 0.621%

— PubChem BioAssay AID493208 (National Center for Advancing Translational Sciences (NCATS), 2011)
